The text below walks through data of article PMC6664820, “Novel natural and synthetic inhibitors of solute carriers SGLT1 and SGLT2” (Pharmacology Research & Perspectives, 2019).

Hit rate of the full screen: of about 1,900 compounds, about 40 (2%) showed an effect of 50% or more. Some of the results follow.

Sequence of human SGLT1 (hSGLT1) (P13866 whole entry, looked up): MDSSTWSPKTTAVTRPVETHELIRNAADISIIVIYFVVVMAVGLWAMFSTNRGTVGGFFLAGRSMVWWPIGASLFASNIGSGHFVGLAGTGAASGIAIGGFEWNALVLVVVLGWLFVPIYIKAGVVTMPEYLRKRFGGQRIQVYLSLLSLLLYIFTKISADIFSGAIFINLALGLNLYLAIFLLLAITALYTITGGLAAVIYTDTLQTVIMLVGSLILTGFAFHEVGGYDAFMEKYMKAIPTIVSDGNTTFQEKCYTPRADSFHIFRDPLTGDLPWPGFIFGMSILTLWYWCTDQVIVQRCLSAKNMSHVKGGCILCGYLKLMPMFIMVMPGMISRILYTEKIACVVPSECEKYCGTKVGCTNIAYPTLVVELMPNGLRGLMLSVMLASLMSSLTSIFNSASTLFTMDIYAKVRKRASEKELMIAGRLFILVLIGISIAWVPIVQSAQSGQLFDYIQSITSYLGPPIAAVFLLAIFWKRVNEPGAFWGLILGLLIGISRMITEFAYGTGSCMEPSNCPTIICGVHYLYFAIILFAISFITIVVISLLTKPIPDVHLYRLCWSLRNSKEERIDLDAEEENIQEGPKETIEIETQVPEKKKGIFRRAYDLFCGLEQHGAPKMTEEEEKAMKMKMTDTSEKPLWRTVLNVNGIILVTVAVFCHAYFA

The experiment concerns the target human SGLT1 (hSGLT1) (human, UniProt P13866). As to the kind of experiment: primary screen, percent of control activity; higher = less effect of the substance. On the set-up: single well. The settings on record: 50 µM. In a few lines:
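Single-point screen at 50 µmol/L in CHO-hSGLT1 cells, with 160 µmol/L 1-NBD-glucose in glucose-free DMEM for 90 min at 37°C. Fluorescence from isopropanol extracts was calibrated, and CHO wild-type uptake was subtracted. Data are percent of uptake without compound.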
Consider `CC(C)CC(N(C)C)C1(c2ccc(Cl)cc2)CCC1.Cl` (stereo not drawn), for which the “NORMALIZED SGLT1 ACTIVITY (%)” value is recorded as 28%.

Turning to `CC(C)CCCC(C)[C@H]1CCC2C3CC=C4C[C@@H](O)CC[C@]4(C)C3CC[C@@]21C` (stereo partly drawn), the “NORMALIZED SGLT1 ACTIVITY (%)” value is 120%.

On to `CC(C)(C#N)O[C@@H]1O[C@H](CO)[C@@H](O)[C@H](O)[C@H]1O`, for which the “NORMALIZED SGLT1 ACTIVITY (%)” value was determined as 83%.

In the case of `CC(=O)Oc1ccccc1C(=O)Oc1ccccc1C(=O)O`, the “NORMALIZED SGLT1 ACTIVITY (%)” value came to 154%.

As for `CN1Cc2c(N)cccc2C(c2ccccc2)C1.O=C(O)/C=C\C(=O)O` (stereo not drawn), the “NORMALIZED SGLT1 ACTIVITY (%)” value amounted to 78%.

Consider `CC1(C)OC(=O)NC1=O`, for which the “NORMALIZED SGLT1 ACTIVITY (%)” value was determined as 132%.

`C[C@@H]1[C@H]2[C@H](O[C@@H]3O[C@H](CO)[C@@H](O)[C@H](O)[C@H]3O)OC=C(C(=O)O)[C@H]2C[C@@H]1O`: the “NORMALIZED SGLT1 ACTIVITY (%)” value came to 123%.

Turning to `CCN(CCO)CCCC(C)Nc1ccnc2cc(Cl)ccc12.O=S(=O)(O)O` (stereo not drawn), the “NORMALIZED SGLT1 ACTIVITY (%)” value was 100%.

Take `Cc1ccc(S(=O)(=O)NC(=O)NN2CC3CCCC3C2)cc1` (stereo not drawn): the “NORMALIZED SGLT1 ACTIVITY (%)” value was determined as 98%.

As for `COc1ccc(NS(=O)(=O)c2ccc(N)cc2)nn1`, the “NORMALIZED SGLT1 ACTIVITY (%)” value came out at 118%.

As for `O=C(CCBr)N1CCN(C(=O)CCBr)CC1`, the “NORMALIZED SGLT1 ACTIVITY (%)” value is 104%.

For the molecule `OC[C@H]1O[C@@H](Oc2ccc(O)cc2)[C@H](O)[C@@H](O)[C@@H]1O`, the “NORMALIZED SGLT1 ACTIVITY (%)” value is 94%.

For the molecule `C=C[C@H]1CN2CC[C@H]1C[C@@H]2[C@@H](OC(=O)OCC)c1ccnc2ccc(OC)cc12`, the “NORMALIZED SGLT1 ACTIVITY (%)” value was 128%.

In the case of `CC(CCC(=O)O)[C@H]1CCC2C3C(C[C@H](O)[C@@]21C)[C@@]1(C)CC[C@@H](O)C[C@H]1C[C@H]3O` (stereo partly drawn), the “NORMALIZED SGLT1 ACTIVITY (%)” value is on record as 89%.

For `Cc1cc(=O)c2c(O)cc(O)c(C)c2o1`, the “NORMALIZED SGLT1 ACTIVITY (%)” value is reported as 275%.

For the molecule `CC(=O)Oc1cccc(O)c1`, the “NORMALIZED SGLT1 ACTIVITY (%)” value is 73%.

For the molecule `C[C@]12CCC(=O)C=C1C=CC1C2CC[C@@]2(C)C1CC[C@@]2(O)CCC(=O)[O-].[K+]` (stereo partly drawn), the “NORMALIZED SGLT1 ACTIVITY (%)” value worked out at 146%.

`Cl.NCCS`: the “NORMALIZED SGLT1 ACTIVITY (%)” value turned out to be 142%.

With `CO[C@@]1(NC(=O)Cc2cccs2)C(=O)N2C(C(=O)[O-])=C(COC(N)=O)CS[C@@H]21.[Na+]`, the “NORMALIZED SGLT1 ACTIVITY (%)” value is 114%.

On to `COc1ccc(-c2coc3cc(O)ccc3c2=O)c(O)c1O`, for which the “NORMALIZED SGLT1 ACTIVITY (%)” value came to 166%.

As to `CCCCN1CCCCC1C(=O)Nc1c(C)cccc1C.Cl` (stereo not drawn), the “NORMALIZED SGLT1 ACTIVITY (%)” value came out at 42%.

Regarding `CCOC(=O)[C@H](CCc1ccccc1)N[C@H]1CCc2ccccc2N(CC(=O)O)C1=O.Cl`, the “NORMALIZED SGLT1 ACTIVITY (%)” value turned out to be 96%.

Consider `O=C(O)CCCc1ccccc1`, for which the “NORMALIZED SGLT1 ACTIVITY (%)” value was found to be 451%.

As to `CC(=O)N[C@@H](CCC(=O)O)C(=O)O`, the “NORMALIZED SGLT1 ACTIVITY (%)” value was 90%.

Turning to `CC(=O)Oc1cc2c(c(C)c1OC(C)=O)CC1OC13[C@@]2(C)CC[C@@]1(C)C2C[C@](C)(C(=O)O)CC[C@]2(C)CC[C@]31C` (stereo partly drawn), the “NORMALIZED SGLT1 ACTIVITY (%)” value is reported as 204%.

As for `CCCC(=O)Nc1ncnc2c1ncn2[C@@H]1O[C@@H]2COP(=O)(O)O[C@H]2[C@H]1OC(=O)CCC`, the “NORMALIZED SGLT1 ACTIVITY (%)” value is recorded as 112%.

In the case of `CC(=O)C1CCC2C3CC(=O)C4=CC(=O)CCC4(C)C3CCC12C` (stereo not drawn), the “NORMALIZED SGLT1 ACTIVITY (%)” value turned out to be 120%.

As for `CN1CCC(=C2c3ccccc3Sc3ccccc32)CC1.O=C(O)/C=C\C(=O)O`, the “NORMALIZED SGLT1 ACTIVITY (%)” value came to 36%.

On to `CC(=O)O[C@H]1CCC2(C)C3=C(CCC2C1(C)C)[C@@]1(C)CC[C@@H](C(C)CCC=C(C)C)[C@]1(C)CC3` (stereo partly drawn), for which the “NORMALIZED SGLT1 ACTIVITY (%)” value is reported as 207%.

For `ClC(Cl)=C(c1ccc(Cl)cc1)c1ccc(Cl)cc1`, the “NORMALIZED SGLT1 ACTIVITY (%)” value is given as 84%.

Regarding `Oc1nc2cc(Cl)c(Cl)cc2nc1O`, the “NORMALIZED SGLT1 ACTIVITY (%)” value worked out at 196%.

In the case of `COc1ccc2c(c1OC)C(=O)O[C@H]2[C@H]1c2c(cc3c(c2OC)OCO3)CCN1C.Cl`, the “NORMALIZED SGLT1 ACTIVITY (%)” value is 110%.

As to `CC(=O)OC/C=C(C)/C=C/C=C(C)/C=C/C1=C(C)CCCC1(C)C`, the “NORMALIZED SGLT1 ACTIVITY (%)” value was 186%.

On to `CCC(/C=C/[C@@H](C)[C@H]1CCC2C3CC=C4C[C@@H](O)CC[C@]4(C)C3CC[C@@]21C)C(C)C` (stereo partly drawn), for which the “NORMALIZED SGLT1 ACTIVITY (%)” value is 103%.

Regarding `CC(=O)O.N=C(N)NCCC[C@@H](NC(=O)[C@@H](N)Cc1ccc(O)cc1)C(=O)O`, the “NORMALIZED SGLT1 ACTIVITY (%)” value turned out to be 79%.

Take `Cl.NCC(O)c1ccc(O)cc1` (stereo not drawn): the “NORMALIZED SGLT1 ACTIVITY (%)” value is 126%.

As to `O=C(CC(=O)c1ccccc1)c1ccccc1`, the “NORMALIZED SGLT1 ACTIVITY (%)” value is on record as 107%.

As for `Cc1ncc([N+](=O)[O-])n1CCO`, the “NORMALIZED SGLT1 ACTIVITY (%)” value was determined as 95%.

Turning to `COc1ccc(CCC(=O)c2c(O)cc(O[C@@H]3O[C@H](CO)C(O)[C@H](O)C3O[C@@H]3O[C@@H](C)[C@H](O)[C@@H](O)[C@H]3O)cc2O)cc1O` (stereo partly drawn), the “NORMALIZED SGLT1 ACTIVITY (%)” value is 143%.

As for `Cc1cccc(CN2CCN(C(c3ccccc3)c3ccc(Cl)cc3)CC2)c1.Cl.Cl` (stereo not drawn), the “NORMALIZED SGLT1 ACTIVITY (%)” value is 133%.

Consider `Clc1ccc(C(c2ccc(Cl)cc2)C(Cl)(Cl)Cl)cc1`, for which the “NORMALIZED SGLT1 ACTIVITY (%)” value was determined as 86%.

In the case of `Cl.O=C(COc1ccc(Cl)cc1)N1CCN(Cc2ccc3c(c2)OCO3)CC1`, the “NORMALIZED SGLT1 ACTIVITY (%)” value is 127%.

Consider `Cc1cc2c(C(C)C)c(O)c(O)c(C=O)c2c(O)c1-c1c(C)cc2c(C(C)C)c(O)c(O)c(C=O)c2c1O`, for which the “NORMALIZED SGLT1 ACTIVITY (%)” value is 62%.

Turning to `Oc1c(I)cc(I)c2cccnc12`, the “NORMALIZED SGLT1 ACTIVITY (%)” value is reported as 97%.

As to `CC[C@H]1CN2CCC1C[C@@H]2[C@@H](O)c1ccnc2ccc(OC)cc12` (stereo partly drawn), the “NORMALIZED SGLT1 ACTIVITY (%)” value was found to be 66%.
